Assay results as given in PubChem BioAssay AID360 (National Center for Advancing Translational Sciences (NCATS), 2006).
Out of some 48,000 compounds screened, about 550 (1.1%) were called active. Not shown: some 4% with an inconclusive outcome. Cut-off read from the data, not from the text of the source: active = potency below about 15 µM; inconclusive = mostly about 16 µM to 33 µM; inactive = weaker than that. The list shows a part of the results.

Molecular target: Lysosomal acid glucosylceramidase (Homo sapiens) (UniProt P04062)
Sequence of UniProt P04062 (P04062 whole entry, looked up): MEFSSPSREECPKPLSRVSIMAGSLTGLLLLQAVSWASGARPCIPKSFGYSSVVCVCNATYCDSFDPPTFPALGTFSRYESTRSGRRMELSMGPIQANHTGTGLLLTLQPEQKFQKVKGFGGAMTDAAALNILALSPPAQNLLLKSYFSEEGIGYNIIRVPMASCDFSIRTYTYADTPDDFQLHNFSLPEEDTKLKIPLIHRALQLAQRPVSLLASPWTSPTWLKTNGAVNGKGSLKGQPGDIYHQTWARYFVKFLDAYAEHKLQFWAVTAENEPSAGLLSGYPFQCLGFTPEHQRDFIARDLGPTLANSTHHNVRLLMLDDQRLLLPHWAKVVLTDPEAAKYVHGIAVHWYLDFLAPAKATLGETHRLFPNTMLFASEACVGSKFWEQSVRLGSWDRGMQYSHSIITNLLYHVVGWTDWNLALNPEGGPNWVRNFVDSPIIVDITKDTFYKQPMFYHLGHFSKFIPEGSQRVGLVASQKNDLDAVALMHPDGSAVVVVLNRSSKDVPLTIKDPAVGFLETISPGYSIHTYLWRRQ
Experiment: Glucocerebrosidase;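 note: the screen sought inhibitors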
Conditions: purified enzyme, resorufin glucoside fluorescence (screen aimed at inhibitors), 20 min
In short: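 Wild-type enzyme at 0.2 nM final in 50mM citric acid/KH2PO4, 10mM sodium taurocholate, 0.01% tween-20, pH 5.9, with resorufin beta-D-glucopyranoside at 30 uM final. Compounds titrated, 20 min at RT, red fluorescence read; AC50 from titration.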
Potency is the fitted concentration of half-maximal effect.

Potency, inactive:
COC(=O)C1CCN(c2nc3ccccc3nc2C(C#N)C(=O)OCC(C)C)CC1 (centres undefined) > 76.9 µM
O=C(NCCCN1CCN(c2cccc(Cl)c2)CC1)c1ccc(N2CCCC2=O)cc1 > 76.9 µM
C=CCn1sc(N)c(C(=O)OCC)c1=S > 76.9 µM
O=C1NCCN1Cc1ccccc1F > 76.9 µM
Cc1cc(NC(=O)c2ccccc2NS(=O)(=O)c2c(C)c(C)cc(C)c2C)no1 > 76.9 µM
O=c1ccnc(S/C=C/c2ccccc2)[nH]1 > 76.9 µM
CC(OC(=O)c1cc2sccc2n1C)C(=O)NCCc1ccccc1 (centres undefined) > 76.9 µM
Cc1nn(C(=O)c2ccco2)c(C)c1CN1C(=O)c2ccccc2C1=O > 76.9 µM
CCN(CC)C(=O)c1cc(-c2ccccc2OC)on1 > 76.9 µM
NC(=O)CC1(CC(=O)O)CCCCC1 > 76.9 µM
Cc1noc(NS(=O)(=O)c2ccc(N3Cc4ccccc4C3=O)cc2)c1C > 76.9 µM
NC(=O)CSc1nc2scc(-c3ccco3)c2c(=O)n1-c1ccccc1 > 76.9 µM
Cc1ccc(-c2nn3c(-c4ccco4)nnc3c3ccccc23)cc1S(=O)(=O)NCC1CCCO1 (centres undefined) > 76.9 µM
NC(=O)c1ccc(-n2nnnc2Oc2ccccc2)cc1 > 76.9 µM
CC(c1ccccc1)N1CC(C(=O)NC2CCCC2)CC1=O (centres undefined) > 76.9 µM
CCCCC(=O)Nc1ccc(NC(=O)C2CC2)nc1 > 76.9 µM
Cc1c(C(O)CN2CCN(Cc3ccc4c(c3)OCO4)CC2)c2ccccc2n1C (centres undefined) > 76.9 µM
COC(=O)[C@H](Cc1ccccc1)NC(=O)N1CCCCC1C (some centres undefined) > 76.9 µM
Cc1cccc(C)c1NS(=O)(=O)c1c(C)[nH]c(=O)[nH]c1=O > 76.9 µM
CC(C(=O)NC1CCCCCC1)N(c1ccccc1)S(C)(=O)=O (centres undefined) > 76.9 µM
O=C(CCn1nnc2ccccc21)Nc1nnc(COc2ccc(F)cc2)s1 > 76.9 µM
COc1ccc(-c2nnc3ccc(SCC(=O)NCc4ccco4)nn23)cc1 > 76.9 µM
COc1ccc(C(=O)CSc2nnc(CNC(=O)c3ccc(OC)c(OC)c3)n2C)cc1 > 76.9 µM
CC(Sc1nc(N2CCOCC2)nc(N2CCOCC2)n1)C(=O)Nc1ccccc1 (centres undefined) > 76.9 µM
CCn1nnnc1SCC(=O)c1ccc(NC(C)=O)cc1 > 76.9 µM
Cc1ccc(N(CC(=O)N2CCn3c2nc2ccccc23)S(=O)(=O)c2c(C)n[nH]c2C)cc1 > 76.9 µM
COc1ccccc1N1CCN(C(=O)CCNS(=O)(=O)c2ccc3c(c2)CCC(=O)N3)CC1 > 76.9 µM
CC1(C)Cc2ccccc2-c2nnc(-c3cccc(O)c3)n21 > 76.9 µM
CCN(C(=O)Cc1cccs1)c1nnc(-c2cccnc2)s1 > 76.9 µM
CC(C(=O)NCc1ccccc1)N(CCN1CCOCC1)C(=O)c1snc(C(N)=O)c1N (centres undefined) > 76.9 µM
COC(=O)CSc1ccccc1C(=O)OC > 76.9 µM
Cc1cc(=O)oc(C)c1C(=O)NCCC(C)C > 76.9 µM
CCn1c(=N)c(C(=O)NCCCOC)cc2c(=O)n3cccc(C)c3nc21 > 76.9 µM
CCC(=O)Nc1sc(C(=O)N2CCCCC2)c(C)c1C#N > 76.9 µM
CC(C)=CC(=O)OCC(=O)NC(=O)NC(C)(C)C > 76.9 µM
COc1nc(-c2ccccc2)cc(C(F)(F)F)n1 > 76.9 µM
O=C(NCc1ccco1)c1ccc(CS(=O)(=O)Cc2ccc(F)cc2)o1 > 76.9 µM
C1CCN(c2nc3nonc3nc2N2CCCC2)C1 > 76.9 µM
CSc1ncccc1C(=O)OCC(=O)N1CCOCC1 > 76.9 µM
O=C(CC1(O)C(=O)N(Cc2ccccc2)c2ccccc21)c1ccncc1 (centres undefined) > 76.9 µM
O=C(CSc1nnc(-c2cccnc2)o1)OC1CCCCC1 > 76.9 µM
O=C(O)c1cccc(NS(=O)(=O)c2ccc3nnn(O)c3c2)c1 > 76.9 µM
COc1ccc(N2C(=O)CCC(C(=O)O)C2c2ccc(F)cc2)cc1 (centres undefined) > 76.9 µM
Cc1cc(C)n2nnnc2c1C#N > 76.9 µM
Cc1ccc(-c2nn(CC(=O)NCC3CCCO3)c(=O)c3ccccc23)cc1 (centres undefined) > 76.9 µM
Cc1nc2nc(C)n(-c3ccccc3)c2s1 > 76.9 µM
CCOc1c(Br)ccc2c1sc1nc[nH]c(=O)c12 > 76.9 µM
O=C1c2ccccc2NC2CCCCC12 (centres undefined) > 76.9 µM
O=C1Nc2ccccc2C(O)(C(=O)NCc2ccco2)N1c1ccccc1 (centres undefined) > 76.9 µM
COc1ccc(C2(C(=O)NCCCN3CCOCC3)CCOCC2)cc1 > 76.9 µM
COCCNC(=O)C1CC(=O)N(C2CCCC2)C1 (centres undefined) > 76.9 µM
O=C(NCc1ccco1)c1cc(S(=O)(=O)N2CCOCC2)c(Cl)cc1Cl > 76.9 µM
O=C(NCc1nc(-c2ccccc2)no1)c1ccc(Br)o1 > 76.9 µM
C=CCNc1nnc(SCC(=O)N2CCCCC2)c2ccccc12 > 76.9 µM
O=C(N1CCOCC1)N1CCN(c2nc(-c3ccccc3)cs2)CC1 > 76.9 µM
COc1ccc(C)cc1NC(=O)CSc1nnc(COc2ccc(C)cc2)n1Cc1ccco1 > 76.9 µM
CCc1nnc(NC(=O)C2CCCN(c3nc(C)cc(C)n3)C2)s1 (centres undefined) > 76.9 µM
CCOC(=O)Nc1sc2c(c1C(=O)OCC)CCC2 > 76.9 µM
CCCCc1c(C)c2ccc(OC)c(/C(C)=N\O)c2oc1=O > 76.9 µM
CSCCOC(=O)C1=C(C)NC(=O)CC1c1ccccc1Cl (centres undefined) > 76.9 µM
O=C(CCCC(=O)OCC1CCCO1)OCC1CCCO1 (centres undefined) > 76.9 µM
N#Cc1ccc(CSc2nnc(NC(=O)C3CCCO3)s2)cc1 (centres undefined) > 76.9 µM
CCOC(=O)CSc1cccc2cccnc12 > 76.9 µM
Cc1cccc(NC(=O)Cn2cnc3ccc(S(=O)(=O)N4CCC(C)CC4)cc3c2=O)n1 > 76.9 µM
O=P(O)(O)CP(=O)(O)O > 76.9 µM
CCSc1nc2c(c(=O)[nH]1)C(c1cccnc1)C(C(=O)OC(C)C)=C(C)N2 (centres undefined) > 76.9 µM
Cc1nn(Cc2ccccc2)c(Cl)c1C(=O)OCc1nnc(-c2ccc(Cl)cc2)o1 > 76.9 µM
O=C(Nc1cccc(Cl)c1)OCc1ccccn1 > 76.9 µM
O=C(CN1C(=O)CC(c2ccccc2)=Nc2ccccc21)NCc1ccco1 > 76.9 µM
Cn1c(SCC(=O)N2CCOCC2)nnc1-c1cccc(NC(=O)c2ccccc2)c1 > 76.9 µM
COc1ccccc1NC(=O)C1=C(C)NC2=C(C(=O)CCC2)C1c1ccc2c(c1)OCO2 (centres undefined) > 76.9 µM
O=C(O)C1CCN(C(=O)c2scc3c2OCCO3)CC1 > 76.9 µM
CCOc1ccc(NC(=O)c2oc3ccccc3c2NC(=O)C(C)C)cc1 > 76.9 µM
c1ccc(-c2nnc3sc(-c4ccncc4)nn23)cc1 > 76.9 µM
CCOC(=O)N1CCC(NC(=O)Cc2ccc(-n3c(=O)[nH]c4ccccc4c3=O)cc2)CC1 > 76.9 µM
Cn1c(Cn2nnc3ccccc32)nnc1SCC(N)=O > 76.9 µM
CCOc1ccc(-c2[nH]ncc2Oc2ccccc2OCC)c(O)c1 > 76.9 µM
COc1ccc(Cn2nnnc2CN2CCOCC2)cc1 > 76.9 µM
CC(C)CSc1nnc2[nH]c(=O)cc(N)n12 > 76.9 µM
C=CCn1c(SCc2nc3ccccc3nc2C)nnc1-c1ccoc1C > 76.9 µM
Cc1n[nH]c(C)c1S(=O)(=O)N1CCc2ccccc21 > 76.9 µM
Oc1c(CN2CCCCC2)cc(COCc2ccccc2)c2cccnc12 > 76.9 µM
COc1ccc(CN2C(=O)CCC2(C)C(=O)NC2CCCCC2)c(OC)c1 (centres undefined) > 76.9 µM
O=C(C1Cc2ccccc2CN1S(=O)(=O)c1cccs1)N1CCCCC1 (centres undefined) > 76.9 µM
CN1C(=O)N(CN2CCCCC2)C2C1N(C)C(=O)N2CN1CCCCC1 (centres undefined) > 76.9 µM
c1coc(-c2nnc(-c3cccs3)o2)c1 > 76.9 µM
Cc1cc(=O)[nH]c2c(C)c(Cl)ccc12 > 76.9 µM
COCCNC(=O)C(c1ccc(F)cc1)N(CC1CCCO1)C(=O)CCC(=O)Nc1ccccn1 (centres undefined) > 76.9 µM
CCOc1ccc(NC(=O)CSc2n[nH]c(=O)n2-c2ccccc2)cc1 > 76.9 µM
COc1ccc(OC)c(NS(=O)(=O)c2cccs2)c1 > 76.9 µM
C/C(N)=C(/C#N)C(=O)COC(=O)CSc1ccccc1 > 76.9 µM
OC1CNCc2cc3c(cc21)OCCO3 (centres undefined) > 76.9 µM
COc1cccc(C(=O)Nc2nnc(C(C)C)s2)c1 > 76.9 µM
COc1ccc(OC)c(NC(=O)C2CC(=O)N(c3ccccc3)C2)c1 (centres undefined) > 76.9 µM
